Measured values taken from patent US20170299608A1 (NGM BIOPHARMACEUTICALS, published 2017).

How the values were obtained:
[1] = target: T1, mature human GDF15 (112 amino acids) (human, UniProt Q99988 197-308); assay: cell-based or functional assay
T1 sequence: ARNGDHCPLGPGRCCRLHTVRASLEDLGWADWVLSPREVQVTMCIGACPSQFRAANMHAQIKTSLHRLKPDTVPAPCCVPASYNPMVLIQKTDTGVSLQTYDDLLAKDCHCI

[2] = target: T2, ^125I-GDF15 (radio-iodinated mature human GDF15) (human, UniProt Q99988 197-308, 125I label, site not stated); assay: radio-ligand competition: soluble GFRAL-Fc inhibiting binding of 0.15 nM ^125I-GDF15 to HEK293-GFRAL cells
T2 construct: Labelled form of m1; also called radio-labeled GDF15
T2 sequence: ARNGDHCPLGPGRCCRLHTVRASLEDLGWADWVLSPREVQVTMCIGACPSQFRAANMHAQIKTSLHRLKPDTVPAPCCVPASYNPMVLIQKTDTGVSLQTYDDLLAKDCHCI
Experimental: HEK293-GFRAL cells were suspended in ice-cold binding buffer (Dulbecco's modified Eagle's medium containing 2 mg/ml BSA, and 25 mM HEPES, pH 7.4) and transferred to pre-wetted Multiscreen filter plates (96-well Dura PVDF 0.65 um Opaque; Millipore), which were kept on ice. Typically, 1×10⁵ of cells in 25 μl were used per well. […] Plates were then transferred to a vacuum filtration manifold (Pall Corporation) and supernatants were filtered. Each well was washed four times with 100 μl of ice cold binding buffer. Bound ¹²⁵I-GDF15 (CPM) were measured by scintillation counting (150 μl/well of EcoLite, MP Biomedicals, Santa Anna, Calif.) using MicroBeta2 Plate Counter (Perkin Elmer). The concentrations (in nM) of unlabeled inhibitors used in this experiment are as follows. GDF15 and GFRAL-Fc: 100, 25, 6.25, 1.56, 0.39, 0.098, 0.024, 0.006; 1M03: 1000, 250, 62.5, 15.63, 3.91, 0.98, 0.24, 0.06.

IC50 for inhibition of GDF15 (1 nM)-mediated reporter activation in HEK293T cells expressing GFRAL and RET [1]: 9.5 nM | IC50 [2]: 0.56 nM
B1: GFRAL-Fc (extracellular domain of hGFRAL fused to Fc) (Fc fusion)
chain: QTNNCTYLREQCLRDANGCKHAWRVMEDACNDSDPGDPCKMRNSSYCNLSIQYLVESNFQFKECLCTDDFYCTVNKLLGKKCINKSDNVKEDKFKWNLTTRSHHGFKGMWSCLEVAEACVGDVVCNAQLASYLKACSANGNPCDLKQCQAAIRFFYQNIPFNIAQMLAFCDCAQSDIPCQQSKEALHSKTCAVNMVPPPTCLSVIRSCQNDELCRRHYRTFQSKCWQRVTRKCHEDENCISTLSKQDLTCSGSDDCKAAYIDILGTVLQVQCTCRTITQSEESLCKIFQHMLHRKSCFNYPTLSNVKGMALYTRKHANKITLTGFHSPFNGEGGGGS[… human IgG1 Fc …]
notes: also called GFRAL-Fc protein; Recombinant GFRAL-Fc
